Over roughly 33,000 sequences, “E-score (-0.5 to 0.5)” has its median near -0.04; the highest 2% begin near 0.36. This is one part of the list.
molecular target: T1, Hmlalpha2 (UniProt P0CY09); experiment: PBM E-score (8-mer binding enrichment) (E-score (-0.5 to 0.5)); higher = stronger / more preferred TF binding; most listed sequences are background and not binding sites; details: protein concentration: 200 nM; construct: GST-full length
T1 sequence: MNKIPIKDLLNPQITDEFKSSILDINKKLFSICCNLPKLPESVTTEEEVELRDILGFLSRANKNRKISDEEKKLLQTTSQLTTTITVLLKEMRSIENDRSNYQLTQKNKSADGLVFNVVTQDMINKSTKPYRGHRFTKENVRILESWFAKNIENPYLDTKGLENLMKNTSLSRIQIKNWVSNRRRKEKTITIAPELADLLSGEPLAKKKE
How it was run: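 Masliner-normalised scans of fluorescent anti-GST signal were the basis for scoring. That signal came from GST-tagged yeast transcription factors applied at about 100-200 nM to double-stranded universal all-10-mer Agilent arrays on fresh or once-stripped slides. Each ungapped eight-base word, pooled with its reverse complement, received an E-score from the Universal PBM Analysis Suite.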

Sequence | PBM E-score
ATTGCCTG | -0.0639
GAACATTA | 0.19
AGGGCCTG | -0.0997
CCATCACA | 0.00393
AACTGATG | 0.0686
CACGGATG | 0.0633
GTACGAAA | 0.161
GAACTATA | 0.0407
ACTCTAGG | -0.076
CGGACAGC | -0.205
CCGAGAGA | -0.267
ACGCGCGA | 0.0725
AGTTATAT | 0.0626
AACTCATA | -0.00023
AAAGAGCA | 0.00963
AGCGCCAA | -0.264
CGGGACAG | -0.212
GAGTTTCC | -0.117
GTTGCTCA | -0.0575
ACAGAGTC | -0.0414
GTTACCAA | 0.062
ACTCACCT | -0.122
CGGTATAC | -0.0511
GGTATGCA | -0.0286
CGCTTGGA | -0.106

Sequence | PBM E-score
TATCTCGA | -0.125
AGTGTAAA | 0.38
CAGTATGC | -0.113
GGCTCGAC | -0.0678
GCCTCACC | -0.249
ATCGATGG | -0.0457
AAGGTTGC | -0.187
AGAGGCCT | -0.263
GTGCCAGA | -0.241
GCAGCAAA | -0.162
GATCCTCC | -0.301
ACTCTAAT | -0.0809
ACTCCAAC | 0.0145
CACGTGTC | 0.25
GGGCCCAA | -0.178
CGGGGGGC | -0.339
GGGATTGA | -0.172
AAATCTAA | 0.122
AGTTTTGA | 0.0892
CTTCAGAA | -0.0755
CCCTACGC | -0.0571
CCCCACCC | -0.206
GCCTGAAC | -0.15
GGGCCACC | -0.289
GTGTTTCA | 0.177

Sequence | PBM E-score
CTCGGCGA | -0.155
ATGTAACA | 0.454
AAAGGAAA | 0.0903
AGGAAGGC | -0.214
GCTATAAC | 0.101
ACCTTCGG | -0.2
CCATATTC | -0.149
ATCAGCCC | -0.147
CAATGTCC | -0.16
GACATTGC | 0.0989
ATATTTAA | 0.194
CGGTACTC | -0.0118
ATGGTCCC | -0.177
TCACCCGA | -0.0984
AGAGCAAT | -0.168
AAGAGCGG | -0.279
CACCTTTC | -0.12
TCAGACGA | -0.155
AAAAAGAC | 0.0588
AGCTGATA | -0.016
CTAAGTAC | 0.198
CACATCAC | 0.0743
AAGAGGAC | -0.254
GCATAAAC | 0.12
CGGGCCAA | -0.332

Sequence | PBM E-score
CACTAAGA | 0.0645
AACATAGT | 0.297
ATAGCTCA | -0.074
ATCCTGTC | -0.014
ACGTAGCT | 0.209
GCAGCGCC | -0.197
CGGTGTCC | -0.317
ACTTTTTA | 0.219
AAGATAAC | 0.177
TGCCCTAA | -0.287
ATCGTAAA | 0.253
GGCGTGTA | 0.464
CTGGGTGA | -0.194
GCAACGCA | -0.106
AATGGCGC | -0.252
AAGGTGGA | -0.0209
CGGTAAAC | 0.0646
ATGCCAAA | 0.0717
CGATTACA | 0.461
AGACATCG | -0.123
ATCCTGAA | 0.0909
CGACGTAA | 0.266
CGACTCAA | -0.0472
GTCCCCGA | -0.136
ACCGGTAT | -0.11

Sequence | PBM E-score
CACAGCAA | 0.203
ACTGCTAT | -0.178
TAGACTCA | -0.131
ACTCGGTC | 0.0522
GCGCAAGC | 0.026
ACGCTTAA | 0.147
ACACCAGC | -0.128
AACTCGCG | 0.142
ACTAGTCC | -0.0798
GCCTACTA | 0.0415
ATTAGTTG | 0.114
CTAATACC | -0.0459
GGGTAAGA | -0.136
TACCATCA | -0.177
CGCTTTGA | -0.0981
AGGGGACC | -0.179
ATAATAAA | 0.278
AGGACTAG | 0.00427
GATGCACC | -0.125
CGTTTGTC | 0.055
GATTGCCC | -0.187
CTAACCAC | 0.00438
ACTGCTTC | -0.241
AATGTTCA | 0.133
CAAGAAGG | -0.151

Sequence | PBM E-score
GTGGACCA | -0.0852
CACTCTGC | -0.0876
CGGGGGCC | -0.273
GGTCGGTA | -0.0807
AGACTGAT | -0.0844
CGTCAAGC | -0.159
GTCCGTGA | -0.038
GCCATGGA | -0.178
GAGTACGA | -0.00617
TCGGCTCA | -0.194
GCAGTATA | -0.159
CGTCGCGA | -0.0238
AACATGAC | 0.425
ACCTGGCT | -0.212
TATCGGAA | 0.00594
GTGCCCTA | -0.263
GTCGCTTA | 0.0108
CTAGCGAC | 0.0263
AATCCCAG | -0.121
AGTCCATC | -0.116
GTCTTTAA | 0.112
CCGTATAG | -0.131
ATTTTATG | 0.0728
CTACGTGC | 0.0196
AGACATAA | 0.143

Sequence | PBM E-score
GCAGAAGA | -0.114
CCAGTACG | -0.0287
ATCGCGGG | -0.16
AGTCTGAG | -0.307
AGTTAAGG | 0.0151
ACATAGCA | 0.392
ACTGCTCG | -0.0631
CTATTTAA | -0.0611
TAGGAATA | -0.189
AGTCAGGA | -0.143
TCGAGAAA | 0.0758
AGGGAAGC | -0.32
GCGGGGAA | -0.0781
AGAAAAAG | -0.153
CTGCCAAG | -0.0746
CCTTCCCG | -0.275
GAAGGCCC | -0.289
CGGGCCGA | -0.227
TCCTAGCA | -0.0161
CCGAATGC | -0.125
TTCAAGAA | 0.155
GGTTGTAA | 0.342
AACTGGGT | -0.204
ACCTTCCG | -0.0549
AAATGCCC | -0.272

Sequence | PBM E-score
CTATTAGC | 0.0641
ACGATTTG | 0.0768
CGTCTGAA | -0.132
AATTTTAA | 0.185
CTGGCTTA | 0.0278
GGTTCGCA | -0.228
GGTAAAGA | 0.0828
CTGTACCC | -0.12
ATTAAATG | 0.226
ATAGCCAA | -0.0102
GCGGTGCA | -0.281
AATGAGTA | 0.133
CACTGGAG | -0.26
AGGAGCCT | -0.197
ACAGCGTC | 0.205
ATCAGCAG | -0.0801
CGGACGCC | -0.103
GCTTGGGA | -0.206
ACATCCGG | -0.0857
AATGGCCT | -0.191
GGATGGAA | -0.175
ATTTAATC | 0.185
TTCCGAAA | -0.139
CCAAGTTA | 0.156
ATCATAAA | -0.0128

Sequence | PBM E-score
GGGTCCAA | -0.221
CGGACCTA | -0.0259
GGAATAAA | 0.0869
TAAGTACA | 0.357
CATTTTCA | 0.102
ACACTCCC | -0.153
GGTCCGTA | -0.192
CAGGAATA | -0.0371
CAGACTAC | 0.0523
CTTAATTA | 0.163
ATAGACTC | -0.183
CAACCTTA | 0.101
GAGTAGCA | -0.0964
CAAGCCAA | 0.12
TAGTCCAA | -0.0113
ACACAGCG | 0.424
AGGCCTGG | -0.127
CGTTCCAC | -0.0969
TCGTTCCA | -0.0169
ATGTTTGC | 0.166
ATTAAAGA | 0.162
ACATCGTA | 0.174
AGTACTGG | -0.163
ACATACGA | 0.305
TCCGTGCA | 0.0644

Sequence | PBM E-score
GTGATGGA | -0.0828
CGGCCTAG | -0.322
CTAAAACC | 0.0222
ACGTACGT | 0.257
ACTACTCA | 0.144
ACCGAGCG | -0.0607
CGCGTCGA | 0.191
ACAGCACG | 0.0953
AAAGGCAC | -0.0122
AGTACAAG | 0.267
AACACCAA | 0.27
ATCATTTC | 0.0324
ATACAACG | 0.185
ACGAAACC | 0.107
CAGGTCGA | 0.0589
ACTTCTCG | -0.039
AACTCGTC | 0.0855
AAGTTGAG | -0.0333
GGATTCGA | -0.0532
AAGACTGT | -0.0384
CCATTTAA | 0.078
AGAAAAAA | -0.0182
ATCCTTGG | -0.0413
CACTCAGC | -0.236
GCACCGAA | -0.0611

Sequence | PBM E-score
AATTCGAG | -0.12
AGGGGCAA | -0.27
AGTGTTGA | 0.238
AAGTGATG | 0.0279
CAGGGTTC | -0.185
CATTGGGG | -0.143
AAAGCGAA | -0.132
ATCCATTC | -0.106
AGTCTAGG | -0.15
GGTATTAC | 0.257
GGGACCGA | -0.078
CGTACTGC | -0.0317
AATACCCA | -0.0463
AAACAAGG | 0.152
TATTTAAA | 0.207
GTAAGACA | 0.202
AATTGCAC | 0.112
AGTTCCAA | 0.0608
GCAACGGA | -0.00487
GTTTGAGA | 0.0411
TAAGCAAA | 0.23
CAGTACCG | -0.142
ATAGAAGC | 0.0922
CGTAGAAC | 0.181
AACTCACC | -0.157

Sequence | PBM E-score
ACAATCTC | 0.00032
GAAAAATC | -0.0357
CTGTCTAC | 0.0394
GACGTTTA | 0.177
AGGATGTA | 0.322
ACTGGCCG | -0.29
GTCCTGGA | -0.18
ACCTGTAT | 0.122
AAAATCGG | -0.183
GACGATGA | -0.0124
CCGCGTTC | 0.106
AGCGGTAG | -0.168
CAGGGGGC | -0.225
GCCCGCGA | -0.214
CTTCTCCA | -0.351
AGGGTCCG | -0.352
ACAGGTGA | -0.0115
AGTTCCCA | -0.0155
CATATCGG | -0.112
TGTGTCAA | 0.359
CAGGACGC | -0.0259
CAAATATA | -0.0151
CGCGATGC | -0.121
CTATGCAG | 0.0895
AAAATTGT | 0.126

Sequence | PBM E-score
AAGAGGAT | -0.0956
ACAAGATC | 0.254
TACTGGCA | -0.199
GAGGGCAA | -0.235
TACTCGGA | 0.0815
CACCTAGA | -0.19
AACCTACA | 0.252
AGGAACAC | 0.134
AGTCATTC | -0.124
ATGCGACG | -0.0756
CTTACGAA | 0.108
AGGTAGTA | 0.0867
CAGCCCGA | -0.28
ACGCAGCG | 0.132
CGATGGAA | -0.138
AACACTGG | 0.0539
ACTCTTCC | -0.111
ATTCATCA | -0.0286
ACAGCCAG | 0.0764
GAGTAGAA | 0.147
ATAAGAGC | -0.0531
GAAGACCA | -0.262
CGGAAGGC | -0.281
ACGCGGCC | 0.14
GCGCACCA | -0.0433

Sequence | PBM E-score
CCTGCTAA | -0.186
AGCCGTAA | 0.11
TCTAAACA | 0.228
GTATGTCA | 0.352
GAGCAGCC | -0.0273
AGGCCGTA | 0.0986
CGCATGCA | 0.145
AGCGGTGA | -0.218
AGTAATAA | 0.257
ACTAAGAG | -0.043
GATTTCGA | -0.165
CAGAACAG | -0.0998
AGAAAGAC | -0.222
GAAATGCC | -0.23
CAGTACAC | 0.315
CATAAGTC | 0.00763
CTACATCC | 0.186
AATAGTGC | -0.0407
GGACGTCC | -0.113

Reference: the supplement of paper PMC3334620
